± gives the standard deviation of the averaged measurements. Over roughly 33,000 sequences, “E-score (dimensionless, -0.5 to 0.5)” has its median near -0.049; the highest 2% begin near 0.37. Some of the results follow.
System: T1, PmTbr T-box DNA-binding domain (GST fusion)
T1 sequence: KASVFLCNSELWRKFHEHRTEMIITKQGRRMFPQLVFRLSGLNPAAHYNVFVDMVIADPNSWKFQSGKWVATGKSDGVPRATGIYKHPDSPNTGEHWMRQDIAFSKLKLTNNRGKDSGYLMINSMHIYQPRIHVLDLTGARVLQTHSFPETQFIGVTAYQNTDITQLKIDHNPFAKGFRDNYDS
Experiment: PBM E-score of 8-mer (E-score (dimensionless, -0.5 to 0.5)); Tbr is Tbrain of the sea star Patiria miniata (Pm) or the sea urchin Strongylocentrotus purpuratus (Sp); higher = stronger binding preference; most listed sequences are background and not binding sites
Settings: the construct has about 5 more residues each side
Summary of the method: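 Primer extension turned Universal Agilent oligonucleotide arrays double-stranded. They were incubated with 200 nM protein in PBS (pH 7.5); the protein was a GST-fused Tbr T-box DNA-binding domain expressed in BL21 E. coli at 20 °C and purified on glutathione. Every ungapped 8-mer was scored from the scanned, quantified probe intensities, and the Universal PBM Analysis Suite gave each an enrichment E-score averaged over duplicate arrays.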

Sequence	PBM E-score of 8-mer
CCTCCTCC	-0.142 ± 0.012
GACATGGA	-0.0649 ± 0.032
CCTGGAGA	-0.0143 ± 0.012
CAACTACA	0.216 ± 0.015
CCCTGGGA	-0.131 ± 0.0026
ATGTACCA	-0.237 ± 0.036
GCCAGCCA	-0.0543 ± 0.036
TAATGTAA	-0.27 ± 0.024
AGCAGCCA	-0.0759 ± 0.044
AGAAACCC	-2e-05 ± 0.0016
CCCTGAAG	-0.169 ± 0.038
GACTTGAA	-0.206 ± 0.0084
AGAAAGCC	-0.195 ± 0.021
CTCTCCTC	-0.252 ± 0.049
ACCCGCGG	0.095 ± 0.14
CGTTCTAC	-0.0889 ± 0.0094
GCTTACAA	-0.163 ± 0.027
AGCCTCGA	-0.134 ± 0.031
AAAGGGAT	-0.335 ± 0.045
AGTCACCG	-0.0939 ± 0.065
CAAGAAAA	-0.12 ± 0.099
TACCCGCA	-0.0772 ± 0.0093
CAATGGAG	-0.113 ± 0.019
CTCGGGCA	-0.136 ± 0.062
CTTAGTGA	0.164 ± 0.013
AGACCATA	-0.187 ± 0.018

Sequence	PBM E-score of 8-mer
CGAGCCGA	-0.175 ± 0.045
ATGACTCC	-0.2667 ± 0.0017
GGTACCCA	0.0936 ± 0.0037
AAGGGCCG	-0.249 ± 0.02
AACATGCC	-0.165 ± 0.0089
ATTACCAA	-0.0698 ± 0.092
CCGCTACA	0.0223 ± 0.033
GCAAGTCC	-0.0159 ± 0.0022
GGTGAATA	0.0919 ± 0.092
AAACAGAC	-0.0406 ± 0.051
ACGGACTA	0.0169 ± 0.079
CCGTCGCC	0.155 ± 0.0055
ATCTGATC	-0.118 ± 0.025
CGCTTAAG	0.0665 ± 0.054
TAACCGAA	-0.15 ± 0.067
AACGTTCA	-0.0811 ± 0.02
ATCAAAAT	-0.163 ± 0.072
GGTAGGAA	-0.264 ± 0.05
CATGCGTA	-0.223 ± 0.034
AGGGCATC	-0.0368 ± 0.049
AATACTAA	-0.0755 ± 0.1
CCAAGAAA	-0.0828 ± 0.058
TGCACGCA	-0.145 ± 0.11
CATCCAGG	0.0557 ± 0.084
GGAACCAC	-0.236 ± 0.032
AGCGTATA	-0.0901 ± 0.025

Sequence	PBM E-score of 8-mer
AAGCCGGC	-0.18 ± 0.041
ATATACTC	-0.2091 ± 0.0019
CACTATAA	-0.00267 ± 0.037
AGCAATTG	-0.0524 ± 0.049
ACGCAGCT	0.109 ± 0.075
CCAAGGTC	-0.114 ± 0.0076
GCGGTCTA	-0.249 ± 0.022
AAATCCGA	0.017 ± 0.0061
CGTGGTAG	0.000165 ± 0.019
GTGACCTA	0.0283 ± 0.1
CGCTGATC	0.168 ± 0.0063
CCCCATAC	-0.103 ± 0.12
CCTTGTAC	-0.0582 ± 0.036
AGCTCAGG	-0.185 ± 0.027
AGTTTTGG	-0.118 ± 0.033
CCAACGGA	0.156 ± 0.0032
AACGATCT	-0.0792 ± 0.027
GCTACTCA	0.00547 ± 0.1
ATACAGGA	-0.191 ± 0.0043
AGCGCACT	-0.0886 ± 0.15
ACCATCGG	-0.0744 ± 0.049
ACCGCGTA	-0.0155 ± 0.049
CTCAACTC	-0.12 ± 0.0054
AGAAACTC	0.0212 ± 0.015
CCGGTCAC	0.132 ± 0.061
AGGGACCA	-0.254 ± 0.011

Sequence	PBM E-score of 8-mer
AGTCTACC	-0.0289 ± 0.0029
ACTGTTAG	0.217 ± 0.017
GCTCCGCC	-0.243 ± 0.039
ACGTTCGG	0.0612 ± 0.0037
GCACGAGC	-0.00463 ± 0.02
GCATAGAC	-0.143 ± 0.044
AGAAACAT	-0.156 ± 0.15
AGGACAGC	-0.14 ± 0.0042
GACACCCC	0.409 ± 0.031
CACTAACC	0.0973 ± 0.002
ACAAGTGA	0.277 ± 0.034
CGAAGTGA	0.364 ± 0.0058
ATGAGCAA	-0.128 ± 0.047
AAGACGAT	-0.107 ± 0.042
GCGTACTA	-0.3074 ± 0.0011
AGCGCGCC	0.0511 ± 0.005
AAAGGTAC	-0.152 ± 0.021
AATCGATG	-0.119 ± 0.011
ATACTGAG	-0.175 ± 0.018
CATGTCAC	0.352 ± 0.0093
TCCCCCGA	-0.121 ± 0.078
CCAAAATA	-0.176 ± 0.038
ATGCGAAG	0.132 ± 0.0083
ATCCGAGG	-0.146 ± 0.011
AGGTTGCA	0.15 ± 0.061
CAGGCCAG	-0.303 ± 0.09

Sequence	PBM E-score of 8-mer
CCAGGAGG	-0.103 ± 0.032
GATGGTTA	-0.218 ± 0.064
CAGACAAG	-0.147 ± 0.052
AAATCGAA	0.0673 ± 0.073
ATTAGAAG	-0.226 ± 0.053
CAACAGAA	-0.116 ± 0.022
CTAAATGC	0.134 ± 0.022
GGGGGAAA	-0.0991 ± 0.021
AAAGGGAA	-0.145 ± 0.09
AACGAATG	0.0394 ± 0.045
CAGTATAC	-0.152 ± 0.054
CGGGGTTC	-0.0309 ± 0.0047
CAAATACG	-0.0163 ± 0.046
ATTCAGCA	0.0671 ± 0.061
CAAAGAGC	-0.117 ± 0.032
GGAGCCCC	-0.215 ± 0.05
CTTTTCAA	0.00166 ± 0.079
GAAAATAC	0.149 ± 0.028
CGCCGAGC	0.126 ± 0.0089
CCTTGTGC	-0.102 ± 0.077
CGTAGACA	0.121 ± 0.03
TGCCCCAA	-0.0979 ± 0.045
GAGGTTAC	0.0141 ± 0.022
CCGTAAAG	-0.0628 ± 0.027
AAATCATG	-0.0852 ± 0.073
CTGGTGGA	-0.159 ± 0.027

Sequence	PBM E-score of 8-mer
GGCGCCCA	0.127 ± 0.0008
AAGCACTA	-0.18 ± 0.042
TATTGGCA	0.234 ± 0.027
CACTAGGA	0.00213 ± 0.093
GCTCCTTA	-0.1824 ± 0.00047
AACTACGA	-0.15 ± 0.015
TCGCCCCA	0.0572 ± 0.027
CCACTACC	-0.118 ± 0.073
GGAGCGCC	0.0573 ± 0.035
CCTCCGAC	0.141 ± 0.048
CCCGAGCC	-0.0993 ± 0.081
CTAACACA	0.374 ± 0.035
ATGTTAGA	-0.236 ± 0.027
CTATTATA	-0.0905 ± 0.0057
AACAGGAA	-0.0377 ± 0.01
CATCTGTC	0.288 ± 0.01
CCCAAATC	0.0088 ± 0.069
CCAGTCCA	-0.015 ± 0.051
ATCACTCG	-0.0737 ± 0.012
CCAGGATC	-0.191 ± 0.071
GTTTTAGA	-0.15 ± 0.029
CCTAAAGG	0.0658 ± 0.049
AGCTGCAG	0.0642 ± 0.099
AGCAGGTC	0.0259 ± 0.014
AGACTGCA	-0.271 ± 0.045
AGTAAACG	-0.124 ± 0.053

Sequence	PBM E-score of 8-mer
CAAATCAC	0.232 ± 0.0098
AGATGCCT	-0.123 ± 0.037
CGATGAAA	-0.00761 ± 0.067
CATATGGG	0.0281 ± 0.047
CCTCGGAC	-0.199 ± 0.023
ACTCGACG	-0.00989 ± 0.04
GCCTCCGC	-0.208 ± 0.024
GTCGCACA	0.353 ± 0.025
GCGCCAAA	0.315 ± 0.017
GCCGTCCC	-0.0496 ± 0.065
CCGATTAA	-0.00536 ± 0.017
AATACTTC	-0.03 ± 0.011
CGTAACCC	-0.0917 ± 0.035
CATTGTCC	0.132 ± 0.0052
ACATCGTC	0.0454 ± 0.028
CGGTGCAG	-0.0282 ± 0.027
ACCTCTAC	0.0791 ± 0.0018
GGACCCCA	-0.38 ± 0.037
CAACTTTC	0.129 ± 0.046
GAGAGGTA	-0.0451 ± 0.015
GTTAACAA	0.32 ± 0.013
CTCTTTGC	0.059 ± 0.07
AACAGTTC	0.189 ± 0.015
TATCTGAA	-0.11 ± 0.012
CTCGACCC	-0.0544 ± 0.035
AAGACGGA	-0.108 ± 0.045

Sequence	PBM E-score of 8-mer
AATTTCGA	-0.11 ± 0.01
ATAGGAGC	-0.0935 ± 0.086
GAAGAGAA	-0.199 ± 0.013
CTAGACAC	0.123 ± 0.08
GTAGATTA	0.0865 ± 0.02
TGCAGGAA	-0.153 ± 0.036
AAAAACCG	-0.0303 ± 0.02
ATAGGCTA	-0.285 ± 0.0075
CCTAATTC	0.0429 ± 0.0097
CACCTCCA	0.423 ± 0.0067
CACGTGCG	0.28 ± 0.026
TAACAACA	0.254 ± 0.048
ATTAGCCG	-0.0305 ± 0.076
CTTGTTGC	0.144 ± 0.024
ACCATAGC	0.035 ± 0.0013
ACACGTTA	0.3709 ± 0.0015
AAAAATTC	-0.114 ± 0.019
AAAAGCAC	0.0928 ± 0.007
CATGGGTA	-0.123 ± 0.048
ATAATCAG	-0.0873 ± 0.05
CGTATGAC	0.00429 ± 0.046
GTCTGGTA	-0.245 ± 0.032
GAGGACCC	-0.04776 ± 4.2e-05
GATGAAGC	-0.0466 ± 0.017
GGCTCGAA	0.0175 ± 0.063
TCTACCCA	-0.139 ± 0.048

Sequence	PBM E-score of 8-mer
AAGCCTGC	-0.142 ± 0.0015
CACGTAAG	0.0187 ± 0.091
CCGCTGTC	0.00332 ± 0.044
AAATTTGC	0.0399 ± 0.12
AAATACTA	-0.0948 ± 0.058
ATTGACAA	0.304 ± 0.043
TATACCGA	-0.114 ± 0.0033
CCAGCAAA	-0.131 ± 0.054
CAATAGGG	-0.157 ± 0.03
ACCTAGCG	0.33 ± 0.02
ATAGCTGG	-0.0874 ± 0.034
AGGGGCGG	0.0193 ± 0.039
AAACCCAC	0.03095 ± 0.00028
ACATTGTC	0.196 ± 0.025
CGAGTCCC	-0.113 ± 0.0043
GTTTAAGA	-0.176 ± 0.045
ACGCAGAA	0.118 ± 0.014
ACAATTGA	0.0544 ± 0.075
ACCGCAGC	0.00955 ± 0.044
AGTTTGAA	-0.102 ± 0.06
CTCTCAGC	-0.00577 ± 0.0096
CCCGCTCG	-0.0279 ± 0.021
CCACGGGC	-0.187 ± 0.019
ATACCAGG	-0.0947 ± 0.038
AGATTAAC	0.0557 ± 0.048
ATAGTACG	-0.156 ± 0.029

Sequence	PBM E-score of 8-mer
CAATGATC	-0.0911 ± 0.018
ATTGGACA	-0.089 ± 0.015
CATCGATG	-0.0732 ± 0.025
AAGCCAAG	-0.303 ± 0.048
GGGCTACC	-0.203 ± 0.011
CTGCGACA	0.172 ± 0.015
CACACGGA	0.0598 ± 0.0022
AGCATGCA	-0.127 ± 0.088
CACTAATA	0.108 ± 0.074
AGACACCT	0.4559 ± 0.0013
CTCAAGAG	0.00045 ± 0.0019
AGCTCTAA	-0.225 ± 0.016
ATATTGTA	-0.0543 ± 0.11
CCTTACCG	-0.114 ± 0.034
ATGTAGAC	-0.237 ± 0.043
TAGGATGA	0.0744 ± 0.022
GTATTGTA	-0.0822 ± 0.11
ATAGTTAG	0.0783 ± 0.045
CTTATCAC	0.331 ± 0.023
GGATGCGA	0.152 ± 0.012
ACCCTATA	-0.1158 ± 0.0011

Reference: the supplement of paper PMC4166925
